Structures can show the parent of a compound that is named as a salt. This is one part of the list. Single values are uncertain, as repeats are few or missing.

These results are taken from the supplement of paper PMC7580552.
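Further: stationary (unshaken) cultures in 96-well plates, started at OD600 0.05 from mid-exponential cells, with compounds supplied from DMSO stocks.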

The subject of the test is Escherichia coli W3110. As to the kind of experiment: planktonic growth (OD600) relative to untreated control; higher = more growth. As to conditions: 10 µM; 20-24 h; 30 °C; TB.
For the compound `C=CCSCC1Nc2cc(Cl)c(S(N)(=O)=O)cc2S(=O)(=O)N1` (stereo not drawn) [Althiazide], the planktonic growth came out at 111%.

Regarding `CC(C)(O)c1ccccc1CC[C@@H](SCC1(CC(=O)O)CC1)c1cccc(/C=C/c2ccc3ccc(Cl)cc3n2)c1` [Montelukast], the planktonic growth was found to be 100%.

With `CN1Cc2c(N)cccc2C(c2ccccc2)C1` (stereo not drawn) [Nomifensine maleate], the planktonic growth amounted to 94%.

As to `c1ccc(CNc2ncnc3nc[nH]c23)cc1` [Aminopurine, 6-benzyl], the planktonic growth came out at 92%.

Turning to `O=C(c1ccccc1)c1ccc2n1CCC2C(=O)O` (stereo not drawn) [Ketorolac tromethamine], the planktonic growth is 108%.

As for `CCOC(=O)[C@@](C)(N)Cc1ccc(O)c(O)c1` [Methyldopate hydrochloride], the planktonic growth amounted to 99%.

Regarding `COc1c(N2CCNC(C)C2)c(F)cc2c(=O)c(C(=O)O)cn(C3CC3)c12` (stereo not drawn) [Gatifloxacin], the planktonic growth amounted to 24%.

Compound `CO/N=C(\C(=O)N[C@@H]1C(=O)N2C(C(=O)OC(C)OC(C)=O)=C(COC(N)=O)CS[C@H]12)c1ccco1` (stereo partly drawn) [Cefuroxime axetil] came in with a planktonic growth of 110%.

Consider `COC(=O)Nc1nc2cc([S+]([O-])c3ccccc3)ccc2[nH]1` (stereo not drawn) [Oxfendazol], for which the planktonic growth came out at 90%.

In the case of `NC1CCN(c2nc3c(cc2F)c(=O)c(C(=O)O)cn3-c2ccc(F)cc2F)C1` (stereo not drawn) [Tosufloxacin hydrochloride], the planktonic growth stood at 4%.

For the compound `COc1ccccc1OCC(O)COC(N)=O` (stereo not drawn) [Methocarbamol], the planktonic growth is 89%.

In turn, `Cc1cc(N)c2ccccc2[n+]1CCCCCCCCCC[n+]1c(C)cc(N)c2ccccc21` [Dequalinium dichloride] had a planktonic growth of 56%.

For the compound `Nc1ccn([C@@H]2CS[C@H](CO)O2)c(=O)n1` [Lamivudine], the planktonic growth was determined as 96%.

`CCCCN1CCCCC1C(=O)Nc1c(C)cccc1C` (stereo not drawn) [Bupivacaine hydrochloride] returned a planktonic growth of 93%.

On to `CCOC(=O)NNc1nncc2ccccc12` [Todralazine hydrochloride], for which the planktonic growth came to 108%.

As for `CC(C)(C)c1ccc(C(O)CCCN2CCC(C(O)(c3ccccc3)c3ccccc3)CC2)cc1` (stereo not drawn) [Terfenadine], the planktonic growth amounted to 84%.

`CC(COc1ccccc1)NC(C)C(O)c1ccc(O)cc1` (stereo not drawn) [Isoxsuprine hydrochloride] came in with a planktonic growth of 97%.

Turning to `COc1ccc(CC2c3cc(OC)c(OC)cc3CC[N+]2(C)CCC(=O)OCCCCCOC(=O)CC[N+]2(C)CCc3cc(OC)c(OC)cc3C2Cc2ccc(OC)c(OC)c2)cc1OC` (stereo not drawn) [Atracurium besylate], the planktonic growth is 103%.

Compound `CC(=O)[C@H]1CC[C@H]2[C@@H]3CC=C4C[C@@H](O)CC[C@]4(C)[C@H]3CC[C@]12C` [Pregnenolone] yielded a planktonic growth of 91%.

Regarding `CCN(CCO)CCCC(C)Nc1ccnc2cc(Cl)ccc12` (stereo not drawn) [Hydroxychloroquine sulfate], the planktonic growth was determined as 109%.

The compound `CCOc1ccccc1OC(c1ccccc1)C1CNCCO1` (stereo not drawn) [Reboxetine mesylate] returned a planktonic growth of 100%.

`CN(C)CCCN1c2ccccc2Sc2ccc(Cl)cc21` [Chlorpromazine hydrochloride] displayed a planktonic growth of 94%.

`Nc1ccn([C@@H]2O[C@H](CO)[C@@H](O)[C@@H]2O)c(=O)n1` [Cytarabine] returned a planktonic growth of 100%.

In turn, `COc1ccnc(C[S+]([O-])c2nc3cc(OC(F)F)ccc3[nH]2)c1OC` (stereo not drawn) [Pantoprazole sodium] came in with a planktonic growth of 93%.

For `Nc1ccc(S(=O)(=O)Nc2ccccn2)cc1` [Sulfapyridine], the planktonic growth stood at 74%.

In turn, `C[C@@H]1C[C@H]2[C@@H]3C[C@H](F)C4=CC(=O)C=C[C@]4(C)[C@@]3(F)[C@@H](O)C[C@]2(C)[C@@]1(O)C(=O)COC(=O)C(C)(C)C` [Flumethasone pivalate] gave a planktonic growth of 94%.

In the case of `CCOC(=O)c1ccc(N)cc1` [Benzocaine], the planktonic growth amounted to 110%.

Consider `CCN(CC)CCOC(=O)C(c1ccccc1)c1ccccc1` [Adiphenine hydrochloride], for which the planktonic growth amounted to 99%.

`OC(CCCN1CCCCC1)(c1ccccc1)c1ccccc1` [Diphenidol hydrochloride] showed a planktonic growth of 89%.

As for `COc1cccc(OC)c1C(=O)N[C@@H]1C(=O)N2[C@@H]1SC(C)(C)[C@@H]2C(=O)O` [Methicillin sodium], the planktonic growth was 94%.

In turn, `Cc1ccc(S(=O)(=O)NC(=O)NN2CCCCCC2)cc1` [Tolazamide] had a planktonic growth of 98%.

`C[C@]12CC[C@@H]3c4ccc(OS(=O)(=O)O)cc4CC[C@H]3[C@@H]1CCC2=O` [Estropipate] returned a planktonic growth of 110%.

For the compound `Cc1ccsc1/C=C/C1=NCCCN1C` [Morantel tartrate], the planktonic growth came out at 98%.

For the compound `CN(C)c1ccc(O)c2c1C[C@H]1C[C@H]3[C@H](N(C)C)C(O)=C(C(N)=O)C(=O)[C@@]3(O)C(O)=C1C2=O` [Minocycline hydrochloride], the planktonic growth stood at 25%.

In the case of `CCN(CC)CCNc1ccc(CO)c2sc3ccccc3c(=O)c12` [Hycanthone], the planktonic growth amounted to 101%.

Take `O=C(COc1ccc(Cl)cc1)N1CCN(Cc2ccc3c(c2)OCO3)CC1` [Fipexide hydrochloride]: the planktonic growth amounted to 92%.

`CNC(C)CCC=C(C)C` (stereo not drawn) [Isometheptene mucate] displayed a planktonic growth of 87%.

`CN(Cc1cnc2nc(N)nc(N)c2n1)c1ccc(C(=O)N[C@@H](CCC(=O)O)C(=O)O)cc1` (racemic) [Amethopterin (R,S)] gave a planktonic growth of 94%.

`Cc1cc(-c2ccccc2)nnc1NCCN1CCOCC1` [Minaprine dihydrochloride] returned a planktonic growth of 95%.

Compound `NC(N)=Nc1nc(CSCC/C(N)=N/S(N)(=O)=O)cs1` [Famotidine] gave a planktonic growth of 92%.

For `CC/C(=C(/CC)c1ccc(O)cc1)c1ccc(O)cc1` [Diethylstilbestrol], the planktonic growth amounted to 92%.

`CC1=C(/C=C/C(C)=C/C=C/C(C)=C\C(=O)O)C(C)(C)CCC1` [Isotretinoin]: the planktonic growth came to 90%.

In turn, `CSc1ccc2c(c1)N(CCC1CCCCN1C)c1ccccc1S2` (stereo not drawn) [Thioridazine hydrochloride] displayed a planktonic growth of 111%.

Take `CN(C)[C@@H]1C(O)=C(C(N)=O)C(=O)[C@@]2(O)C(O)=C3C(=O)c4c(O)cccc4[C@@](C)(O)[C@H]3[C@H](O)[C@@H]12` [Oxytetracycline dihydrate]: the planktonic growth was determined as 21%.

Regarding `CCCCNc1c(C(=O)OCC)c(C)nc2c1cnn2CC` [Tracazolate hydrochloride], the planktonic growth was found to be 96%.

Regarding `CCCCC1(COC(=O)CCC(=O)O)C(=O)N(c2ccccc2)N(c2ccccc2)C1=O` [Suxibuzone], the planktonic growth came to 95%.

`COc1cc(NC(C)CCCN)c2ncccc2c1` (stereo not drawn) [Primaquine diphosphate] showed a planktonic growth of 100%.

Regarding `COc1cc(-c2ccc(=O)[nH]n2)ccc1OC(F)F` [Zardaverine], the planktonic growth stood at 99%.
